In PubChem BioAssay AID686979 (National Center for Advancing Translational Sciences (NCATS), 2013):
About 50,000 (12%) of roughly 420,000 compounds were called active. Inconclusive means that the source gave no clear call. Such entries were picked first, then a sample of the others. Calls follow the shape of the dose curve; as a rule, active = well fitted inhibition curve with a large enough effect; inconclusive = small, poorly fitted or top-dose-only effect; inactive = flat fitted curve, though single readings scatter. Potencies of inconclusive entries are left out as doubtful fits.

assay: qHTS for Inhibitors of human tyrosyl-DNA phosphodiesterase 1 (TDP1): qHTS in cells in presence of CPT; conditions: chicken DT40 Tdp1-/-;hTDP1 cells + 20 nM CPT, ATP luminescence, 48 h; activity change, negative = growth inhibition: at 46.2 µM (top of the series) unless noted; also: nearly all actives have a fitted effect of over 55% in size
Summary of the method: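 Cell growth measured by CellTiter-Glo luminescence after a minimum 48 h, 37 C compound exposure with 20 nM CPT in Tdp1-knockout DT40 cells stably expressing hTDP1, seeded 400/well; qHTS titration format.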
% is scaled to controls: 0 for no effect and ±100 for the full control effect; potency is read from the fitted curve at half-maximal effect; tags tell the direction and shape of the fitted curve.

Row | Compound | Potency | activity change, negative = growth inhibition
1 | CC(=O)c1ccc(OCCCC(=O)Nc2ccc(C)c(S(=O)(=O)N3CCOCC3)c2)cc1 | inconclusive [inhibitor, single point] | 
2 | CC(=O)Nc1cc(C(=O)NCc2ccc(F)cc2)ccc1Sc1ccc(C)cc1 | inconclusive [inhibitor, single point] | 
3 | Cc1cc(O)ccc1N1C(=O)c2cccc3cc([N+](=O)[O-])cc(c23)C1=O | inconclusive [inhibitor, full curve] | 
4 | COC(=O)CC1Oc2ccccc2N(Cc2ccc(C)cc2)C1=O (centres undefined) | active: 16.4 µM | 
5 | NC(=O)c1cc([N+](=O)[O-])c(Cl)cc1NCc1ccccn1 | inconclusive [inhibitor, single point] | 
6 | CCc1nc2ccc(C(=O)Nc3cc(-c4ccccc4)ccc3OC)cn2c1N(C)CCCc1ccccc1 | inconclusive [inhibitor, single point] | 
7 | Cc1nn(C2CCS(=O)(=O)C2)c(Cl)c1/C=C/C(=O)OCC(=O)Nc1ccc2c(c1)OCO2 (centres undefined) | inconclusive [inhibitor, single point] | 
8 | O=c1c(-c2ccc3c(c2)OCCO3)coc2cc(O)cc(O)c12 | inconclusive [inhibitor, partial curve] | 
9 | CC(C)COC(=O)c1cc(=O)[nH]c2ccccc12 | inconclusive [inhibitor, single point] | 
10 | COc1ccc(C)cc1NC(=O)c1cc2c(s1)-c1ccccc1SC2 | inconclusive [inhibitor, single point] | 
11 | CN1C(=O)CSc2ccc(NC(=O)N3CCc4ccccc43)cc21 | inconclusive [inhibitor, single point] | 
12 | CN(C)c1ccc(C(CNC(=O)Cc2ccc(Cl)cc2)N2CCOCC2)cc1 (centres undefined) | inconclusive [inhibitor, single point] | 
13 | CCOC(=O)C1CCN(C(=O)CSc2n[nH]c(-c3ccccc3Cl)n2)CC1 | inconclusive [inhibitor, partial curve] | 
14 | COc1ccc(-c2cc(C(=O)N/N=C(\C)c3cccnc3)c3ccccc3n2)c(OC)c1 | active: 10.3 µM | 
15 | Cc1cc(NC(=O)CSc2nnc(Nc3ccccc3C)s2)no1 | inconclusive [inhibitor, partial curve] | 
16 | O=C1CN(C(=O)c2ccc(Cl)cc2Cl)C(c2ccc(F)cc2)c2cc(F)ccc2N1 (centres undefined) | inconclusive [inhibitor, single point] | 
17 | O=c1[nH]c(SCCc2ccccc2)nc2c1CCC2 | inconclusive [inhibitor, partial curve, poor fit] | 
18 | Cc1cc(OCC(=O)Nc2cnn(CCCC(=O)O)c2)ccc1Cl | inactive | 
19 | COC(=O)Cc1[nH]nc2c1C(C1C=CCCC1)C(C#N)=C(N)O2 (centres undefined) | inconclusive [inhibitor, single point] | 
20 | Cn1c(-c2cccc(Br)c2)cnc1NCc1cccnc1 | inconclusive [inhibitor, partial curve] | 
21 | Brc1ccccc1-c1nc2c3ccccc3ncn2n1 | inconclusive [inhibitor, single point] | 
22 | CCCCn1c(N)c(N(CCC(C)C)C(=O)COC(=O)/C=C/c2ccc(F)cc2)c(=O)[nH]c1=O | inconclusive [inhibitor, single point] | 

Row | Compound | Potency | activity change, negative = growth inhibition
23 | CCOC(=O)c1ccc(Nc2ncnc3c2cnn3C)cc1 | inconclusive [inhibitor, single point] | 
24 | CN(CCOc1ccccc1)CC(O)COc1ccccc1 (centres undefined) | inconclusive [inhibitor, single point] | 
25 | CC1CCC(C#N)(N(C)C(=O)CSc2nnc(C3CC3)n2C2CC2)CC1 (centres undefined) |  | inactive: 8.8%
26 | CCCCn1nnc(NC(=O)c2ccc([N+](=O)[O-])cc2Cl)n1 |  | inactive: -26.5%
27 | CC(C)OC(=O)c1cc2c(OCC(O)CNC(C)(C)C)cccc2[nH]1 (centres undefined) | inconclusive [inhibitor, single point] | 
28 | Cc1cnc(C)c(Nc2nc(C(N)CCc3ccccc3)cs2)n1 (centres undefined) | active: 16.4 µM | 
29 | COc1ccccc1NC(=S)NCC1CCC(CNC(=S)Nc2ccccc2OC)CC1 (centres undefined) | inconclusive [inhibitor, single point] | 
30 | Cc1cc(C)n2c(SCc3nnc(-c4cccs4)o3)nnc2n1 |  | inactive: -3.19%
31 | O=c1[nH]n(-c2ccc([N+](=O)[O-])cc2)c(=O)c2ccccc12 |  | inactive: -3.34%
32 | Cc1ccc(S(=O)(=O)c2nc(-c3ccco3)oc2SC(C)C)cc1 | inconclusive [inhibitor, single point] | 
33 | Cc1ccc(NC(=O)Cn2c(=O)n(-c3ccc(C)cc3)c(=O)c3ccc(C(=O)NCc4ccccc4Cl)cc32)cc1 | active: 7.31 µM | 
34 | Oc1ccc(CN2CCN(Cc3ccccc3)CC2)c2cccnc12 | active: 20.6 µM | 
35 | COc1ccc(CNC(=O)C(c2ccco2)N(C(=O)CNS(=O)(=O)c2ccccc2)c2ccccc2C)cc1 (centres undefined) | inconclusive [inhibitor, single point] | 
36 | O=C1C=C(c2ccccc2)C(c2ccccc2)C1O (centres undefined) |  | inactive: -16.7%
37 | COc1ccc(CCNC(=O)Cc2c(C)c3c(cc(C)c4c(C)c(C)oc43)oc2=O)cc1OC |  | inactive: -7.82%
38 | CC(C)CCn1c(N2CCc3ccccc3C2)nc2c1c(=O)[nH]c(=O)n2C | inconclusive [inhibitor, single point] | 
39 | CCc1c(C#N)c(SCCC(=O)Nc2ccc(F)cc2)nc2c1C(=O)CC(C)(C)C2 | active: 16.4 µM | 
40 | Cc1cc(C)cc(NC(=O)c2sc3nc(-c4ccccc4)cn3c2C)c1 | active: 14.6 µM | 
41 | CN1CC(=O)N/C1=N/C(=O)Nc1cccc(Cl)c1 | inactive | 
42 | CC(=O)Nc1nonc1-c1nnc(SCc2ccc(F)cc2Cl)n1C | inconclusive [inhibitor, single point] | 
43 | Cn1cc(SCC(=O)NCCc2ccccc2)c2ccccc21 | inconclusive [inhibitor, single point] | 
44 | Cn1cnc(S(=O)(=O)N2CCCCC2c2cc(C(=O)Nc3cccc(C#N)c3)no2)c1 (centres undefined) | inconclusive [inhibitor, full curve, poor fit] | 
